Measured values as given in PubChem BioAssay AID2147 (National Center for Advancing Translational Sciences (NCATS), 2009).
“And” between values parts separate entries of the source, which are not always exact repeats. Equal values may be shown once. In all, about 230,000 compounds went through this assay and about 3,600 (1.6%) were called active. This list was built around the results that the source calls inconclusive (neither active nor inactive); the mix of calls is not that of the screen. The call rests on the fitted dose curve; in most records, active means well fitted inhibition curve with a large enough effect (not every such curve was filed as active); inconclusive means small, poorly fitted or top-dose-only effect, or another doubt; inactive means no such curve, though single readings can be large or run the other way. Potencies of inconclusive entries are doubtful fits and often do not repeat.

target: Lysine-specific demethylase 4E (Homo sapiens) (UniProt B2RXH2); experiment: qHTS Assay for Inhibitors of Human Jumonji Domain Containing 2E (JMJD2E); details: JMJD2E catalytic domain, FDH-coupled NADH fluorescence (FDH is formaldehyde dehydrogenase); series mostly up to 57.1 µM; activity change, negative = inhibition: at the top concentration
Further: nearly all actives have a fitted effect of over 50% in size.
Potency means the concentration at half of the fitted maximal effect; tags describe the fitted curve by direction and shape.
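Wherever activity change, negative = inhibition is given: 0% = wells with enzyme and -100% = buffer wells without enzyme.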

UniProt B2RXH2, sequence (B2RXH2 whole entry, looked up, the tested form may be a part): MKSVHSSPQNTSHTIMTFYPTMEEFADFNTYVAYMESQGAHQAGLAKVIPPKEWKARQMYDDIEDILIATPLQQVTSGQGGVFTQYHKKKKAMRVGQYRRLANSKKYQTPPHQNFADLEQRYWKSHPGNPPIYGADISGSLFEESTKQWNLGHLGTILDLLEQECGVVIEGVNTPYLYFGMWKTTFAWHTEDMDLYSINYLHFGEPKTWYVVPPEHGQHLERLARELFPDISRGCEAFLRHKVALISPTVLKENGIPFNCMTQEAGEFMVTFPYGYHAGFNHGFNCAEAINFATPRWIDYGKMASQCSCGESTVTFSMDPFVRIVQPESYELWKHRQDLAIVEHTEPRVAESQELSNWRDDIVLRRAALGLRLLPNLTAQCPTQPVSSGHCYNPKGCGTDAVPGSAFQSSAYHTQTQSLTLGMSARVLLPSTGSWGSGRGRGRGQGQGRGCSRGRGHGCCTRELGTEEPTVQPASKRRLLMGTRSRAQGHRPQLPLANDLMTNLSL

SMILES | Potency | activity change, negative = inhibition
CCN(CC)S(=O)(=O)c1cccc(NC(=O)CN(C)Cc2cccc(OC)c2)c1 | inconclusive: 28.2 µM [inhibitor, single point] | 
CCC(=O)NC(c1ccccc1Cl)c1c(O)ccc2ccccc12 (stereo not drawn) | inconclusive: 35.5 µM [inhibitor, single point] | 
COc1ccc(C(=O)NCCc2cn3ccccc3n2)cc1 | inconclusive: 17.8 µM [inhibitor, partial curve] | 
CC(=O)OC(COc1cccc(C)c1)Cn1cnc2ccccc21 (stereo not drawn) | inconclusive: 39.8 µM [inhibitor, single point] | 
CC1CCCN(S(=O)(=O)c2cccc(-c3cn4cccnc4n3)c2)C1 (stereo not drawn) | inconclusive: 11.2 µM [inhibitor, partial curve] | 
O=C(Nc1ccc2nn(-c3ccccc3)nc2c1)c1cccs1 | inconclusive: 25.1 µM [inhibitor, partial curve] | 
CCc1nnc(NC(=O)c2ccc(S(=O)(=O)N(C)c3ccccc3)cc2)o1 | inconclusive: 35.5 µM [inhibitor, single point] | 
CC1=NN(c2ccc(Cl)c(C(=O)O)c2)C(=O)C1 | inconclusive: 3.55 µM [inhibitor, single point] | 
O=C(NCCc1ccccc1)C1c2ccccc2C(=O)N1Cc1cccs1 (stereo not drawn) |  | inactive: 0.319%
Cc1csc(-c2nc3ccccc3n2C)n1 | inconclusive: 2.82 µM [inhibitor, partial curve, poor fit] | 
COc1cccc(/C=N/n2c(C)nc3ccccc32)c1OC |  | inactive: -4.78%
CCOC(=O)c1ccc(NC(=O)c2ccccc2[N+](=O)[O-])cc1 |  | inactive: 0.734%
CN(C)CCC(=O)c1cccc(Br)c1 | inconclusive: 39.8 µM [inhibitor, single point] | 
COC(=O)COc1cccc2c(=O)n(CC(=O)NCc3ccc(F)cc3)ccc12 | inconclusive: 39.8 µM [inhibitor, single point] | 
Nc1ccc(-c2nc3c(Cl)c(N)ccc3[nH]2)cc1 | inconclusive: 31.6 µM [inhibitor, partial curve] | 
COc1ccc(NC(=O)C/C(C)=N/NC(=O)C(=O)NC2CCCCC2)c(OC)c1 |  | inactive: 75.8%
O=C(O)Cn1cc(C(=O)C(F)(F)F)c2ccccc21 | inconclusive: 39.8 µM [inhibitor, single point] | 
CCC(C)NC(=O)c1c(N)n(/N=C/c2cccs2)c2nc3ccccc3nc12 (stereo not drawn) | inconclusive: 0.708 µM [inhibitor, partial curve, poor fit] | 
O=C1c2ccccc2C(=O)N1OS(=O)(=O)c1ccccc1 | inconclusive: 28.2 µM [inhibitor, partial curve] | 
NS(=O)(=O)c1ccc(-c2ccc(/C=N/NC(=O)c3ccccc3O)o2)cc1 | inconclusive: 28.2 µM [inhibitor, partial curve] | 
O=S(=O)(c1ccc2nc(-c3ccco3)c(-c3ccco3)nc2c1)N1CCOCC1 | inconclusive: 2.82 µM [inhibitor, full curve] | 
CC(C)CC(=O)N1CCN(Cc2ccc3c(c2)OCO3)CC1 | inconclusive: 28.2 µM [inhibitor, single point] | 

SMILES | Potency | activity change, negative = inhibition
COCCCn1c(Cc2csc(Nc3cccc(Cl)c3)n2)nnc1SCC(=O)OC |  | inactive: -4.64%
COc1cc(S(=O)(=O)N2CCCCC2)ccc1NC(=O)c1ccccc1Cl |  | inactive: -28.2%
CCOc1cc(/C=C2/NC(=O)N(CC(=O)Nc3cccc(C)c3)C2=O)ccc1OCC(N)=O | inconclusive: 39.8 µM [inhibitor, single point] | 
Cc1nc(N)nc(N)c1/C=C/C(C)(C)c1ccc(Cl)cc1 | inconclusive: 0.0447 µM [inhibitor, full curve, poor fit] | 
Cc1ccc2cc(CN(Cc3cccs3)C(=O)c3ccco3)c3nnnn3c2c1C |  | inactive: 3.02%
Fc1ccc(CSc2ncnc3scc(-c4ccccc4)c23)cc1 |  | inactive: 3.14%
CC(C)Cc1nc(N2CCOCC2)c(C#N)c2c1CCC2 | inconclusive: 31.6 µM [inhibitor, partial curve] | 
Cc1ccc(-c2onc3ccc(C=O)cc23)cc1 | inconclusive: 35.5 µM [inhibitor, single point] | 
COc1ccc(-c2nn(-c3ccccc3)cc2CNCc2cccnc2)c(F)c1 | inconclusive: 35.5 µM [inhibitor, partial curve] | 
Cc1ccccc1-c1nc2cc(Cl)ccc2o1 | inconclusive: 31.6 µM [inhibitor, single point] | 
COc1ccc(C(=O)/C=C/c2ccccc2)cc1 |  | inactive: -1.86%
OCc1cc(C(O)CNCCCCCCOCCCCc2ccccc2)ccc1O (stereo not drawn) | inconclusive: 25.1 µM [inhibitor, single point] and inconclusive: 28.2 µM [inhibitor, partial curve] | 
COc1ccc(-c2nn(-c3ccccc3)cc2/C=N/NC(=S)NC(C)C)cc1OC | inconclusive: 39.8 µM [inhibitor, single point] | 
COCCNC(=O)/C(C#N)=C/c1ccc(O)cc1 |  | inactive: -14.9%
Cc1[nH]nc2c1C(c1cccs1)C1=C(CCCC1=O)N2 (stereo not drawn) | inconclusive: 35.5 µM [inhibitor, partial curve] | 
CCC(=O)N(Cc1ccc(C)cc1)Cc1cc2cc3c(cc2[nH]c1=O)OCO3 | inconclusive: 15.8 µM [inhibitor, partial curve] | 
N#Cc1cnc2c(-c3ccccc3)c(-c3ccccc3)nn2c1N | inconclusive: 28.2 µM [inhibitor, partial curve] | 
CCCCC(=O)Nc1nn(CC(C)C)c2nc3ccccc3cc12 | inconclusive: 35.5 µM [inhibitor, single point] | 
COc1ccc(/C=C/C(=O)NC(=S)NN2CCCCC2c2cccnc2)cc1OC (stereo not drawn) | inconclusive: 39.8 µM [inhibitor, single point] | 
CCOc1ccc(N2CC(O)Cn3c2nc2c3c(=O)n(CCCc3ccccc3)c(=O)n2C)cc1 (stereo not drawn) | inconclusive: 39.8 µM [inhibitor, single point] | 
COc1ccc(-c2nnc(NC(=O)c3ccc(F)cc3)o2)cc1 | inconclusive: 39.8 µM [inhibitor, single point] | 
